Data taken from the supplement of paper PMC11417369.
Some of the results follow.

The sequences below were run on PfHDP1 homeodomain (GST-tagged) (assay: gcPBM binding intensity (ln(normalized median fluorescence intensity)); higher = stronger DNA binding).
How it was run: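 An Agilent 4 × 180k array of primer-extended double-stranded 36-bp intergenic genomic probes, with negative controls, was incubated for 1 h with GST-tagged P. falciparum DNA-binding domains expressed in E. coli. Alexa488 anti-GST antibody detected bound protein, scanned at 488 nm. Binding intensity is the highest Masliner-normalised natural-log median intensity across replicate spots of either probe orientation.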

Sequence | gcPBM binding intensity (ln)
ATATATTTTATTCCTATATATATATATATATATATA [GTGCAC_negctrl_site556] | 9.63
CATTATGTCATAAATGCACACATATACATTGTTTTG [CACACA_site8118] | 10.4
ATTATTTTTCTATGTGTGCACGTGTGGAATGTGTCT [GTGCAC_site9507] | 9.17
TTCTGAACAAAATTATATATTTATTTTTATTTTCAT [CACACA_negctrl_site422] | 6.35
TATATTACTTAAAATACACACCATGGAAAAGTTTTA [CACACA_site5443] | 6.51
TTTCTTTTTTTTTTTTTTTCTGGCTTTTTCTCTTTT [TGCATGCA_negctrl_site599] | 5.85
TTTTTATTTTTTTTATGTACACAAATGATATACATA [XGTACX_site5910] | 6.77
AGGATACACGGACACACACACATATAGATTTATATA [CACACA_site6552] | 6.89
AAAATGAATATAATGACGCACACTTAAAATTGTTAA [CACACA_site2509] | 6.46
TGTGTTAAATGTAATAGTGAATAAATAATTTTAACA [TGCATGCA_negctrl_site161] | 6.36
TTTTTTAGAAAAAGTTGTACTTTTTTTTTTTTTTTT [XGTACX_site535] | 5.92
TAAAAATGTAGACACACACACATATATATATTTAAT [CACACA_site1528] | 6.89
ATATATATAATATAGGTGCACTACTTATTTAAAAAA | 9.91
TTAATAACAAAATAAACACACATATATAAATCCACA [CACACA_site1590] | 6.81
AAATAATTAGCTATTTGTACATATATACATATTTAT [XGTACX_site4652] | 6.37
ATATATTAGGGCAAATTTTCTGACATTACATCAGTC [CACACA_negctrl_site1166] | 6.48
ATATTTATATTTGTATGTACTTAAGTTTGTATGTAT [XGTACX_site3608] | 6.67
TTTTTAATTCAAAAAATAATATATTATATTTCAAAT [CACACA_negctrl_site737] | 6.11
TATTTTTCTTTTTTCTGTACTCACACAAATAGAAGG [XGTACX_site7329] | 6.37

Sequence | gcPBM binding intensity (ln)
TTTTTACGTAAACAAAATAATTATATAATATTATTT [CACACA_negctrl_site1769] | 6.34
TAAACAAATAAATAAACACACAATATATGTATATAT [CACACA_site3803] | 6.4
CGTAAATTTTTTAAAAGTACAAAAAGATACGAGAAA [XGTACX_site8722] | 6.46
ATAGGACCTATGTGCCCATGGGTACATTAAAAAAAA [CACACA_negctrl_site1465] | 6.1
AAAAAACTTATAATCACACATATGATTAAATATTAA [CACACA_site4956] | 6.16
AAAAAAAAAAAAAAAATACACACGTGAATGTATTGT [CACACA_site1320] | 6.69
AAATAACACATATATACACACATATAAATATAATAT [CACACA_site2692] | 6.74
TTTGTTTTAAATCGAAGTACACATAATTATATTTTA [XGTACX_site1541] | 6.33
AATTATTTTTTGTATGAACACACAACTTAATTATGA [CACACA_site8774] | 6.37
TTGAATGTAGTTAAATGTACATGTAATATATAAAAA [XGTACX_site1250] | 6.95
ATACAACATATATATACACACATATAATAATAATAA [CACACA_site3367] | 6.85
GAATAAAAAATATATGTGCACATATAAACTTAAAAT [GTGCAC_site9554] | 10.7
TAATATAAAGGAAAAGAAAAGAAAAGAATATACAAT [CACACA_negctrl_site1369] | 6.37
AAACCAATAAAAAACTGTACAAAAATTATATGAGAT [XGTACX_site1269] | 6.8
ACTACCTATATTTAAGCATGCAAAAAATAAAAATAT [TGCATGCA_site238] | 7.08
ATAAATTGTTCTTTTTGTGTAAACAGAATATTAAAA [CACACA_negctrl_site1022] | 6.12
TATATATATACATAATGTACATTTTATAAATTTACA [XGTACX_site5283] | 7.47
ATATTTTAAATGTTATGTACACATTTGTTGTTTACA [XGTACX_site7353] | 6.92
AATATTATTATTATTACACACACAATTATATTTACC [CACACA_site8061] | 6.61

Sequence | gcPBM binding intensity (ln)
TTAATTTGTTCTTACACACACATATATATATATTTA [CACACA_site1185] | 6.82
ATTTTTTTTTTTATTTTCTTTGAGATTATCTTAATT [CACACA_negctrl_site1209] | 6.36
TCCTTTTTTAAAAGTTGTACATTATTGTTATTTGTT [XGTACX_site4686] | 6.41
ATACAATAAAATAAGTTTGAATAAAATTAAATATAT [CACACA_negctrl_site877] | 6.29
GAAGGAAATAATAGTAGTACAAATGGTAAGAAATAT [XGTACX_site5845] | 7.26
TTCCTCTTAATATGTGCACACTAAATTATAACCTAA [CACACA_site5751] | 11.3
TATATAAATGTTATCACACACTCACGTTTGACAAAA [CACACA_site6468] | 6.36
TTTACAATATAAAATACACACACACTAACATATATT [CACACA_site9231] | 7.02
TTTACAATATTAAAATGTACATATAAAATAAATAAA [XGTACX_site8367] | 6.61
TTTCCCAAGCTTATTACACACAAGTAGAATAAGCTT [CACACA_site1561] | 6.27
TATATAGGTAAAAAATGTACTTATATTGAATATATT [XGTACX_site4414] | 5.97
GATATCAAATATAAATGTACAAATTATATATACATA [XGTACX_site3228] | 6.09
TTCTTATTTATTTTCTTCTCCTTCCTCAAATTTTTT [GTGCAC_negctrl_site592] | 6.63
AATTTGTTAATATTTTGTACACATAATATAAAAACA [XGTACX_site2224] | 6.48
GAGAAAGATATATACACACACATAAATATGTACATA [CACACA_site6975] | 6.59
GGTAATTATTTTGGTTGTACTCAAATATATAATATT [XGTACX_site291] | 6.71
AAACATAAAGAAAAAAAAAATATATATTTATTTATT [GTGCAC_negctrl_site357] | 6.33
TATATGTTATATTGGACACACACAATAAACATTATG [CACACA_site8480] | 6.44
